In US10751422B2, “Antibody drug conjugates (ADC) that bind to FLT3 proteins” (AGENSYS, INC., priority 2015, dated 2020):

B1: v62-1b37.1: FLT3 ligand blocker Mab, heavy chain SEQ ID NO: 12, light chain SEQ ID NO: 13 (antibody, listed as Homo sapiens)
heavy: EVQLVESGGGVVRPGGSLRLSCAASGFTFDDYGMSWVRQAPGKGLEWVSGINWNGGSTGYADSVKGRFTISRDDAKNSLYLQMNSLRAEDTALYHCARDGYTYGPFDNWGQGTLVTVSS[skipping human IgG1 constant region]
light: DIQMTQSPSSLSASVGDRVTITCRASQGIRNDLGWYQQKPGKAPKRLIYAASSLQSGVPSRFSGSGSGTEFTLTISSLQPEDFATYYCLQHNSYPYTFGQGTKLEIKRTVAAPSVFIFPPSDEQLKSGTASVVCLLNNFYPREAKVQWKVDNALQSGNSQESVTEQDSKDSTYSLSSTLTLSKADYEKHKVYACEVTHQGLSSPVTKSFNRGEC
modifications: v62-1b37.1 heavy chain; v62-1b37.1 light chain
B2: v62-1b37.1-AGL-0129-08 (conjugate)
heavy: B1 heavy
light: B1 light

Experiments:
[1] = target: T1, Recombinant human FLT3-Fc (Homo sapiens, UniProt P36888); experiment: FLT3 ligand blocking assay on Luminex microspheres; type: binding; conditions: biotinylated FLT3 ligand 5 ng/mL; antibody 10 μg/mL; 60 minutes
T1 construct: purchased R and D Systems
Text: In one experiment, the CHv62.21 MAb of the invention was confirmed to not block FL. Briefly, Recombinant human FLT3-Fc was purchased from R and D Systems. This protein was immobilized onto the surface of activated Luminex microspheres using standard sulfo-NHS/EDC chemistry according to the procedure provided by Luminex. A His-tagged version of the protein, along with several other proteins were conjugated to Luminex microspheres, and served as controls in this procedure.
In addition, FLT3 ligand was also purchased from R and D Systems. The ligand was biotinylated using Thermo Scientific EZ-Link Sulfo-NHS-LC-Biotin, No-Weigh Formula according to the manufacturer's recommendations. After two (2) hours of reacting the protein with Sulfo-NHS-LC-Biotin, unincorporated biotin was removed by dialysis against DPBS.
The ability of FLT3 immobilized onto the surface of the microspheres to bind to its biotinylated ligand was assessed by reacting the microspheres with various concentrations of biotinylated ligand, prepared in buffer containing PBS, 2% BSA, 0.05% Tween 20, and 0.1% sodium azide, for 120 minutes at RT with gentle shaking. […] Biotinylated FLT3 ligand bound to its immobilized receptor was detected with Streptavidin-R-Phycoerythrin (Moss, Inc.). The fluorescence associated with the microspheres was measured with the Luminex instrument. […]

EOL-1 = EOL-1 cell growth with human FLT3 ligand and antibody (Cell Titer Glo, 5 days); type: cell-based; conditions: 50, 10 or 5 ng/mL human FLT3 ligand, 10, 1, 0.1 μg/mL antibody
Method: The ability of FLT3 antibodies (CHv62.21 and v62-1b37.1) to mediate the effect of human FLT3 ligand was evaluated using the human leukemia EOL-1 cell line, which endogenously expresses FLT3. Isotype control antibody (mLys-1c3.1) was also used. […] The next day, cells were treated with 50, 10 or 5 ng/mL of human FLT3 ligand (in 25 μl of complete media) and 10, 1, 0.1 and 0 μg/mL of test antibody (in 25 μl of complete media). Media alone was used as the untreated control. […] At the end of the incubation period, 100 μl of Cell Titer Glo was added to each well and incubated for 30 minutes, shaking, at room temperature.

[2] = tested on: FLT3 expressed on the surface of human leukemia MOLM-13 cell line; experiment: Binding of biotinylated antibodies to MOLM-13 cells in the presence of human FLT3 Ligand (FACS); conditions: hFL from 100 ng/mL serially diluted 1:2; biotinylated antibody 10 and 1 μg/mL
Method: In another experiment, The ability of anti-FLT3 antibodies, CHv62.21 and v62-1b37.1, to bind to FLT3 expressed on the surface of human leukemia MOLM-13 cell line was evaluated in the presence of human FLT3 Ligand (hFL). Isotype control antibody, AGS91.1-pAF, was used as a negative control.
Briefly, The MOLM-13 cells were seeded at a density of 50,000 cells per well onto round-bottom 96 well plates. The plates were washed one time with 150 μl per well of PBS. The cells were Fc blocked (20 μg/mL) at a volume of 50 μl per well in FACS buffer (PBS+2% FBS+0.1% sodium azide) to reduce non-specific binding. Cells were incubated at 4° C. for 15 minutes. Human FLT3 Ligand was added to appropriate wells at 100 ng/mL and serially diluted 1:2 across the plate for a total of 11 points. Cells were incubated for 30 minutes at 4° C. prior to adding biotinylated FLT3 antibodies. After incubation, the biotinylated anti-FLT3 antibodies and isotype control antibody were prepared in FACS buffer at 10 μg/mL and 1 μg/mL and 25 μl was added to wells and incubated for 1 hour at 4° C. Cells were washed two times with FACS buffer and Streptavidin-PE (Jackson immune) was added 100 μl per well and incubated for 1 hour at 4° C. Cells were washed two times with FACS buffer and read on the Attune Cytometer (Life technologies) and analyzed in FlowJo (Tree Star) software.

RS-4-11 = type: cell-based, human

Row | Molecule | blocking of FLT3 ligand (FL) binding to immobilized FLT3 [1] | effect on growth of EOL-1 cells in the presence of FLT3 ligand (EOL-1) | interference of human FLT3 Ligand with antibody binding to MOLM-13 cells [2] | cytotoxicity (RS-4-11)
1 | B1 | is a FL blocker | inhibits growth at high concentrations in the presence of FLT3 ligand | does interfere with the binding | –
2 | B2 | – | – | – | can induce cytotoxicity
